Measured values published in PubChem BioAssay (Tox21).
“And” between values parts separate entries of the source, which are not always exact repeats. Equal entries are not always repeated. This list was built around the results that the source calls inconclusive (neither active nor inactive); the mix of calls is not that of the screen. Where the call is inconclusive, the potency comes from a doubtful curve fit. The source made the active and inactive calls. Unless noted, calls follow the shape of the full dose curve.

tested on: not listed separately; assay: qHTS assay for small molecule activators of the heat shock response signaling pathway (AID 743210; active = well fitted activation curve with a large enough effect in the signal ratio in the repeat runs, with a control signal flat, not every such curve was filed as active; inconclusive = weak or mixed curves; the % refers to the signal ratio;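 as to activation: HeLa cells with beta-lactamase reporter driven by heat shock elements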); details: HeLa HSE-bla reporter, beta-lactamase ratio, 5 h; activation: at 62.6 µM (top of the series) unless noted
How it was run: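 Following overnight attachment, HSE-bla HeLa cells received test compounds for 5 h at 37 C; beta-lactamase activity was then detected via FRET substrate fluorescence.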
% is scaled to controls: 0 for no effect and ±100 for the full control effect; potency is read from the fitted curve at half-maximal effect; tags tell the direction and shape of the fitted curve or compound fluorescence and quenching.

SMILES | Potency | activation
C[C@]12C=CC3=C4CCC(=O)C=C4CC[C@H]3[C@@H]1CC[C@@H]2O | inconclusive: 61.2 µM [activator, partial curve, poor fit] | 
C#CC1(O)CCCCC1 |  | inactive: -0.4%
FC(F)C(F)(F)OCC(Cn1cncn1)c1ccc(Cl)cc1Cl (stereo unspecified) |  | inactive: 2.95%
CCCN(CCC)CCc1c[nH]c2ccccc12 | inconclusive: 67.7 µM [activator, single point] | 
C[C@]12Cc3cn[nH]c3C[C@@H]1CC[C@@H]1[C@@H]2CC[C@@]2(C)[C@H]1CC[C@]2(C)O | inconclusive: 29.8 µM | 
CO/N=C(/C1=NOCCO1)c1ccccc1Oc1ncnc(Oc2ccccc2Cl)c1F | inconclusive: 54.9 µM [falling, partial curve, poor fit] | 
CCOP(=S)(OCC)O/N=C(\C#N)c1ccccc1 | inconclusive: 50.9 µM | 
N#Cc1sc2c(=O)c3ccccc3c(=O)c=2sc1C#N | inconclusive: 11.8 µM | 
Cc1ccc(N)c(N)c1 | inconclusive: 5.1 µM and inconclusive: 8.71 µM [activator] | 
CC(C)[C@@H](Nc1ccc(C(F)(F)F)cc1Cl)C(=O)OC(C#N)c1cccc(Oc2ccccc2)c1 (stereo partly specified) | inconclusive: 22.8 µM | 
O=C(NC(=O)c1c(F)cccc1F)Nc1ccc(Oc2ccc(C(F)(F)F)cc2Cl)cc1F | inconclusive: 33.4 µM | 
CCCCC(CC)COC(=O)Cl (stereo unspecified) | inactive | 
c1ccc2c(c1)[nH]c1cnccc12 | inconclusive: 30.9 µM | 
c1ccc(-c2ccccc2)cc1 | inconclusive: 58.8 µM [activator] | 

tested on: not listed separately; assay: qHTS assay to identify small molecule agonists of the peroxisome proliferator-activated receptor delta (PPARd) signaling pathway - cell viability counter screen (AID 743211; active = well fitted cell-killing curve with a large enough effect in the repeat runs; inconclusive = weak or mixed curves; inactive = no such curve, though single readings can be large or run the other way; also: nearly all actives have a fitted effect of over 55% in size); details: PPARd-bla HEK293H viability, CellTiter-Glo luminescence, 17 h; activity change, negative = cytotoxicity: at 62.6 µM (top of the series)
How it was run: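 Tox21 library compounds, delivered in DMSO, were incubated 17 h with PPARd-bla HEK293H cells; cytotoxicity was taken from CellTiter-Glo luminescence read 30 min after reagent addition.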

SMILES | Potency | activity change, negative = cytotoxicity
Cc1c(COC(=O)[C@@H]2[C@H](/C=C(\Cl)C(F)(F)F)C2(C)C)cccc1-c1ccccc1 | inconclusive: 61.5 µM [cytotoxic, single point] | 
CN(C)[C@@H]1C(=O)C(C(N)=O)=C(O)[C@@]2(O)C(=O)C3=C(O)c4c(O)ccc(Cl)c4[C@@](C)(O)[C@H]3C[C@@H]12 |  | inactive: 1.35%
CCN1CCC2(CC1)COc1cc3c(cc12)N(C(=O)c1ccc(-c2ccc(-c4nnc(C)o4)cc2C)cc1)CC3 | active: 9.01 µM | 
CC(C)C1CCC(Cc2ccc(Cl)cc2)C1(O)Cn1cncn1 (stereo unspecified) | active: 54.4 µM | 
N#Cc1c2ccccc2cc2ccccc12 | inconclusive: 34.6 µM [cytotoxic, partial curve, poor fit] | 
ClC1=C(Cl)[C@]2(Cl)[C@@H]3[C@H]4C[C@H]([C@@H]5O[C@H]45)[C@@H]3[C@@]1(Cl)C2(Cl)Cl | inconclusive: 61.6 µM [cytotoxic, single point] | 
CC1(C)[C@H](C(=O)O[C@H](C#N)c2cccc(Oc3ccccc3)c2)[C@@H]1/C=C(\Cl)C(F)(F)F | inconclusive: 18.1 µM [cytotoxic] | 
CN(C)CCc1c[nH]c2ccc(O)cc12 | inconclusive: 67 µM [cytotoxic, single point] | 
CC(C)[C@H](C(=O)OC(C#N)c1cccc(Oc2ccccc2)c1)c1ccc(OC(F)F)cc1 (stereo partly specified) |  | inactive: 1.95%
FC(F)C(F)(F)OCC(Cn1cncn1)c1ccc(Cl)cc1Cl (stereo unspecified) | inconclusive: 48.7 µM [cytotoxic, single point] | 
C[C@]12Cc3cn[nH]c3C[C@@H]1CC[C@@H]1[C@@H]2CC[C@@]2(C)[C@H]1CC[C@]2(C)O | inconclusive: 33.5 µM [cytotoxic, single point] | 
CO/N=C(/C1=NOCCO1)c1ccccc1Oc1ncnc(Oc2ccccc2Cl)c1F | inconclusive: 19.5 µM [cytotoxic, partial curve] | 

target: Peroxisome proliferator-activated receptor delta (Homo sapiens) (UniProt Q03181); assay: qHTS assay to identify small molecule agonists of the peroxisome proliferator-activated receptor delta (PPARd) signaling pathway (AID 743212); details: HEK293H PPARd-UAS-bla, beta-lactamase FRET ratio, 17 h; activation: at 62.6 µM (top of the series) unless noted
UniProt Q03181, sequence (Q03181 whole entry, looked up): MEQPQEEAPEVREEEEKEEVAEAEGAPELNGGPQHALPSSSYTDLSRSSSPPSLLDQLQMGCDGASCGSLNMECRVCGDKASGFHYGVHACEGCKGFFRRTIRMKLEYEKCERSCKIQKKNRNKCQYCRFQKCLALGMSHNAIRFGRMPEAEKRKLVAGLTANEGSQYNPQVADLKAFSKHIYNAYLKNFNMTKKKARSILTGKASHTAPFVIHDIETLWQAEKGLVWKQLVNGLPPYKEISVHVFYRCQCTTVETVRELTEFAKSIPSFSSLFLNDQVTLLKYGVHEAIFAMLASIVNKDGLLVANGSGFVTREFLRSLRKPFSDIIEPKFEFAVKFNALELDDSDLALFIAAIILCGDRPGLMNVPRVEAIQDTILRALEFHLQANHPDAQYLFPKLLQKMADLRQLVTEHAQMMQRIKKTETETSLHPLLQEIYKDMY
How it was run: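 Tox21 library screened in GeneBLAzer PPARd UAS-bla HEK293H cells. After compound treatment at 37 C, a FRET-based beta-lactamase substrate was applied for 2 h and fluorescence recorded.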

SMILES | Potency | activation
CN(C)[C@@H]1C(=O)C(C(N)=O)=C(O)[C@@]2(O)C(=O)C3=C(O)c4c(O)ccc(Cl)c4[C@@](C)(O)[C@H]3C[C@@H]12 | inconclusive: 50 µM [rising, single point] | 
COc1ccc(/C(=C/C(=O)N2CCOCC2)c2ccc(Cl)cc2)cc1OC |  | inconclusive: -7.24%
CCN1CCC2(CC1)COc1cc3c(cc12)N(C(=O)c1ccc(-c2ccc(-c4nnc(C)o4)cc2C)cc1)CC3 | inconclusive: 11.3 µM [rising, full curve] | 
Cn1cc(C2=C(c3cn(C4CCN(Cc5ccccn5)CC4)c4ccccc34)C(=O)NC2=O)c2ccccc21 | inconclusive: 6.68 µM [rising, partial curve, poor fit] | 
CC(C)=CC1C(C(=O)OCc2coc(Cc3ccccc3)c2)C1(C)C (stereo unspecified) |  | inconclusive: -9.57%
N#Cc1c2ccccc2cc2ccccc12 | inconclusive: 17.3 µM [rising, full curve] | 
C[C@@H]1O[C@@H](O[C@@H]2C=C3CC[C@@H]4[C@H](CC[C@]5(C)[C@@H](c6ccc(=O)oc6)CC[C@]45O)[C@@]3(C)CC2)[C@H](O)[C@H](O)[C@H]1O | inconclusive: 0.422 µM [rising, full curve] | 
c1ccc2cc3c(cc2c1)-c1cccc2cccc-3c12 | inconclusive: 8.59 µM [rising, partial curve] | 
ClC1=C(Cl)[C@]2(Cl)[C@@H]3[C@H]4C[C@H]([C@@H]5O[C@H]45)[C@@H]3[C@@]1(Cl)C2(Cl)Cl | inconclusive: 61.6 µM [rising, single point] | 
CC1CCCC1 |  | inactive: 4.13%
CC(C)C(Nc1ccc(C(F)(F)F)cc1Cl)C(=O)OC(C#N)c1cccc(Oc2ccccc2)c1 (stereo unspecified) | inconclusive: 22.1 µM [rising, partial curve, poor fit] | 
c1ccc2c(c1)cc1ccc3cccc4ccc2c1c34 | inconclusive: 44.5 µM [rising, partial curve] | 
CC(C)[C@H](C(=O)OC(C#N)c1cccc(Oc2ccccc2)c1)c1ccc(OC(F)F)cc1 (stereo partly specified) |  | inconclusive: 13.5%
O=C(O)C(F)(F)C(F)(F)C(F)(F)C(F)(F)C(F)(F)C(F)(F)C(F)(F)F | active: 19.4 µM | 
C[C@]12C=CC3=C4CCC(=O)C=C4CC[C@H]3[C@@H]1CC[C@@H]2O | inconclusive: 43.3 µM [rising, partial curve] | 
C[C@]12Cc3cn[nH]c3C[C@@H]1CC[C@@H]1[C@@H]2CC[C@@]2(C)[C@H]1CC[C@]2(C)O | inconclusive: 26.6 µM [partial curve] | 
N#Cc1sc2c(=O)c3ccccc3c(=O)c=2sc1C#N |  | inconclusive: 19.1%
CC(C)[C@@H](Nc1ccc(C(F)(F)F)cc1Cl)C(=O)OC(C#N)c1cccc(Oc2ccccc2)c1 (stereo partly specified) | inconclusive: 59.4 µM [single point] | 
O=C(NC(=O)c1c(F)cccc1F)Nc1ccc(Oc2ccc(C(F)(F)F)cc2Cl)cc1F | inconclusive: 24.5 µM [rising, single point] | 
c1ccc(-c2ccccc2)cc1 |  | inconclusive: -3.01% [at 81.1 µM]
